Results on 38 molecules are retold here after PubChem BioAssay AID1745853 (National Center for Advancing Translational Sciences (NCATS), 2022).

The list shows a part of the results. Further columns of the screen follow, without active or inactive calls.

Assay in all cases: Primary Screen for Target Class Profiling of Small Molecule Inhibitors of Methyltransferases
Test [1] addresses Glycine N-methyltransferase (Homo sapiens) (UniProt Q14749). The conditions noted are these: purified enzyme, MTase-Glo SAH luminescence; measured here: GNMT inhibition; at 40 µM; stronger effect = lower value. The method in brief: (§1)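 Each enzyme was assayed with SAM and its substrate. SAH formation detected by MTase-Glo luminescence; single-point 40 uM screen[…].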
For test [2], the target named is Guanidinoacetate N-methyltransferase (Homo sapiens) (UniProt Q14353). The conditions noted are these: purified enzyme, MTase-Glo SAH luminescence; measured here: GAMT inhibition; at 40 µM; stronger effect = lower value. Put shortly: as §1
The target of test [3] is Histamine N-methyltransferase (Homo sapiens) (UniProt P50135). Conditions: purified enzyme, MTase-Glo SAH luminescence; measured here: HNMT inhibition; at 40 µM; stronger effect = lower value. The method in brief:
as §1

In test [4] the target is Nicotinamide N-methyltransferase (Homo sapiens) (UniProt P40261). Conditions: purified enzyme, MTase-Glo SAH luminescence; measured here: NNMT inhibition; at 40 µM; stronger effect = lower value. The method in brief: as §1
The target in test [5] is Phenylethanolamine N-methyltransferase (Homo sapiens) (UniProt P11086). The conditions noted are these: purified enzyme, MTase-Glo SAH luminescence; measured here: PNMT inhibition; at 40 µM; stronger effect = lower value. Put shortly:
as §1
% is set by controls: 0 for no effect and ±100 for the full control effect.

For the molecule `COc1cccc(CN(C(=O)CC(C)(C)C)[C@H]2C[C@H](C(=O)N3CCNCC3)N(Cc3ccc4c(c3)OCO4)C2)c1`, the activity change, negative = inhibition was -8.68% in test [1]; -7.17% in test [2]; 1.93% in test [3]; -22.2% in test [4]; -3.4% in test [5].
Taken in the same sequence, the figures for `C=CCN(C)C(=O)[C@@H](C)C1CC[C@@]2(C)Cc3sc(-c4cccnc4)nc3[C@@H](C)[C@@H]2[C@H]1O` (stereo partly drawn) were -4.85%, 0.313%, -0.525%, 63.5% and -12.8%.
Consider `O=C([C@@H]1C[C@H](F)CN1C(=O)CCCc1ccccc1)N1CCCCC1`, for which the activity change, negative = inhibition in test [1] is -2.73%; in test [2], 3.22%; in test [3], 2.02%; in test [4], -3.01%; in test [5] it was -1.73%.
Turning to `CC(C)CNC(=O)c1ccc2c(=O)n(C(C)C)c3nn(CC(=O)Nc4cccc(Cl)c4)c(=O)n3c2c1`, the activity change, negative = inhibition in test [1] came out at 4.37%; in test [2], 0.664%; in test [3] it was 6.89%; in test [4] it was 3%; in test [5], 6.71%.
On to `CCN1C(=O)c2cc(C(=O)Nc3cc(C)cc(C)c3)nn2CC1(C)C(=O)NC1CCCC1` (stereo not drawn), for which the activity change, negative = inhibition in test [1] was 1.41%; in test [2], 2.33%; in test [3], -22.7%; in test [4], 1.38%; in test [5], 1.88%.
`CN(C)c1nc(N)c(C(=O)N=C(N)N)nc1Cl`: the activity change, negative = inhibition was 5.82% in test [1]; 13.4% in test [2]; -6.94% in test [3]; -5% in test [4]; 1.99% in test [5].
With `CC1(C(=O)NC2CCCC2)Cn2c(nc3ccccc32)C(=O)N1Cc1cccs1` (stereo not drawn), the activity change, negative = inhibition in test [1] was -0.496%; in test [2], 0%; in test [3], 3.67%; in test [4], 7.18%; in test [5] it was 0.996%.
Taken in the same sequence, the figures for `CCCN(C)C(=O)CCc1ccnc(N2CCOCC2)c1` were -1.44%, 2.98%, -0.058%, -3.75% and -0.678%.
For `CCOCCCNc1nc2c(-c3cccc(F)c3)nnn2c2ccc(Cl)cc12`, the activity change, negative = inhibition in test [1] worked out at 0.8%; in test [2], 0%; in test [3] it was 8.14%; in test [4] it was 11.4%; in test [5], 1.64%.
For the molecule `CCC(C(=O)N1CCC2(CC1)C(=O)N(CC(=O)NCC(C)C)CN2c1ccccc1)c1ccccc1` (stereo not drawn), the activity change, negative = inhibition in test [1] is -5.93%; in test [2], -2.87%; in test [3] it was -5.14%; in test [4], -19.5%; in test [5], -8.7%.
For the molecule `Nc1nc2c(ncn2[C@@H]2O[C@H](CO)[C@@H](O)[C@@H]2O)c(=O)[nH]1`, the activity change, negative = inhibition is 4.18% in test [1]; 14.7% in test [2]; 8.55% in test [3]; -0.044% in test [4]; 7.77% in test [5].
Consider `Cc1cnc(C(=O)N2CCC3(CC2)CCC(O)(CN(C)C)CC3)cn1`, for which the activity change, negative = inhibition is -0.528% in test [1]; 0.898% in test [2]; -1.43% in test [3]; -4.61% in test [4]; 0.15% in test [5].
Turning to `Cc1ccc(C)c(C(=O)Cn2nc3n(C(C)C)c(=O)c4ccc(C(=O)NCC(C)C)cc4n3c2=O)c1`, the activity change, negative = inhibition was 4.63% in test [1]; 1.87% in test [2]; 5.46% in test [3]; 1.32% in test [4]; -2.08% in test [5].
Taken in the same sequence, the figures for `COc1ccc(NC(=O)Cn2c(=O)oc3cc(S(=O)(=O)NCc4ccccc4)ccc32)c(OC)c1` were 0.56%, 0.342%, 3.57%, -1.24% and 5.02%.
Consider `CC(C)Cn1c(=O)c2ccc(C(=O)NC(C)C)cc2n2c(=O)n(CC(=O)c3ccc(F)cc3F)nc12`, for which the activity change, negative = inhibition was -0.986% in test [1]; 4.64% in test [2]; -0.019% in test [3]; -2.98% in test [4]; 0.856% in test [5].
Taken in the same sequence, the figures for `O=C(c1ccc(OC(F)F)c(C#Cc2ccccn2)c1)N1Cc2cccnc2C1` were -8.36%, 1.14%, 1.86%, -18.1% and -6.55%.
Consider `Cc1ccc(NC(=O)CSc2nnc3n(CC(C)C)c(=O)c4cc(F)ccc4n23)cc1`, for which the activity change, negative = inhibition in test [1] is -1.92%; in test [2], 4.58%; in test [3], 2.94%; in test [4], 0.333%; in test [5], -0.993%.
`COc1cc(C(C)=O)c(OC)c2c1OC(C)(C)C=C2`: the activity change, negative = inhibition in test [1] was 3.8%; in test [2], 3.93%; in test [3], 8.28%; in test [4], -12.2%; in test [5], -0.019%.
`COc1cc(C(=O)NC2CCN(C)CC2)c(F)cc1Nc1ncc2c(n1)N(C1CCCC1)CC(F)(F)C(=O)N2C`: the activity change, negative = inhibition is -26.6% in test [1]; -10.9% in test [2]; -37.1% in test [3]; -38.3% in test [4]; -32.5% in test [5].
With `COc1ccc2c3c1O[C@H]1C[C@@H](O)C=C[C@@]31CCN(C)C2`, the activity change, negative = inhibition is -0.941% in test [1]; 3.17% in test [2]; 4.19% in test [3]; -8.76% in test [4]; -2.05% in test [5].
Taken in the same sequence, the figures for `COc1cc(Nc2nc3ccccc3nc2NS(=O)(=O)c2ccc(NC(=O)c3ccc(OC)c(C)c3)cc2)cc(OC)c1` were -7.97%, -13.8%, 2.8%, -49.3% and -18.4%.
As to `CC1=CC23[C@H](C=C(C(=O)O)[C@@H]2COC(=O)[C@]3(O)CO)[C@@H]1C` (stereo partly drawn), the activity change, negative = inhibition in test [1] is 0%; in test [2], -1.62%; in test [3], -5.84%; in test [4], -12.6%; in test [5], 1.19%.
For the molecule `Cc1cc(F)c(Nc2ncnc3cc(OCc4ccccc4)ccc23)cc1O`, the activity change, negative = inhibition in test [2] was -23%; in test [4], -32.3%; in test [5], -4.71%.
`CC1(C(=O)NC2CCCCCC2)Cn2c(ccc2-c2ccco2)C(=O)N1C1CCCCC1` (stereo not drawn): the activity change, negative = inhibition in test [1] is -2.41%; in test [2], 0%; in test [3], 1.84%; in test [4] it was -5.64%; in test [5] it was -1.92%.
With `C=C1C(OC(C)=O)CCC2(C)CC3(O)OC(=O)C(C)=C3CC12` (stereo not drawn), the activity change, negative = inhibition was -2.52% in test [1]; -12.2% in test [2]; 4.41% in test [3]; -22.7% in test [4]; -0.667% in test [5].
With `CC(C)Cn1c(=O)c2ccccc2n2c(=O)n(CC(=O)Nc3ccc4c(c3)OCCO4)nc12`, the activity change, negative = inhibition in test [1] is -3.1%; in test [2] it was 0.481%; in test [3], -1.07%; in test [4], 2.23%; in test [5], -2.92%.
For the molecule `COc1cccc(CN2C(=O)c3cc4occc4n3CC2(C)C(=O)NC2CCC(C)CC2)c1OC` (stereo not drawn), the activity change, negative = inhibition is -8.36% in test [1]; 4.29% in test [2]; -3.37% in test [3]; -3.34% in test [4]; -1.41% in test [5].
Consider `COc1ccc(OC)c2c1cc1n2CC(C)(C(=O)NC2CCCC2)N(Cc2ccccc2C)C1=O` (stereo not drawn), for which the activity change, negative = inhibition is -3.4% in test [1]; 3.57% in test [2]; -0.32% in test [3]; -11.9% in test [4]; -3.68% in test [5].
As to `COc1ccc(CN2C(=O)c3cc4occc4n3CC2(C)C(=O)NC2CCCC(C)C2C)cc1` (stereo not drawn), the activity change, negative = inhibition was -0.188% in test [1]; 0% in test [2]; 0.121% in test [3]; -4.64% in test [4]; -2.35% in test [5].
Taken in the same sequence, the figures for `Cc1ccc(Cn2c(=O)c3ccccc3n3c(SCC(=O)Nc4cc(F)ccc4F)nnc23)cc1` were 7.73%, 0%, 13.2%, 7.33% and 9.18%.
Taken in the same sequence, the figures for `COC(=O)c1cc2n(n1)CC(C)(C(=O)NC1CCCCCC1)N(c1ccc(Cl)cc1)C2=O` (stereo not drawn) were -0.588%, 2.57%, -2.12%, -2.19% and -1.48%.
Taken in the same sequence, the figures for `Cc1ccc(C(=O)NCc2nnc3ccc(-c4ccccc4)nn23)s1` were -11.1%, 2.81%, 0.585%, -5.91% and -0.062%.
For the molecule `Cn1ncnc1COc1nn2c(-c3cc(F)ccc3F)nnc2cc1C(C)(C)C`, the activity change, negative = inhibition in test [1] was -2.19%; in test [2], -4.75%; in test [3] it was -3.48%; in test [4], -16.4%; in test [5], -4.39%.
For the molecule `CNC(=O)c1ccc2cc(C3(O)CCn4cncc43)ccc2c1` (stereo not drawn), the activity change, negative = inhibition in test [1] is 2.84%; in test [2], 3.37%; in test [3], 8.43%; in test [4] it was -9.46%; in test [5], -0.979%.
Take `COCCN1C(=O)c2cc3occc3n2CC1(C)C(=O)NC1CCC(C)CC1` (stereo not drawn): the activity change, negative = inhibition in test [1] came to 1.74%; in test [2] it was 4.05%; in test [3] it was 6.12%; in test [4], 5.32%; in test [5], 3.03%.
`COc1cc(/C=C/CO)cc(OC)c1O[C@@H]1O[C@H](CO[C@@H]2O[C@H](CO)[C@@H](O)[C@H](O)[C@H]2O)[C@@H](O)[C@H](O)[C@H]1O`: the activity change, negative = inhibition in test [1] was 5.18%; in test [2], 3.99%; in test [3], 6.28%; in test [4] it was -7.35%; in test [5], 0.726%.
`Cc1cccc(NC(=O)Cn2c(=O)oc3cc(S(=O)(=O)N4CCCC4)ccc32)c1C`: the activity change, negative = inhibition in test [1] was -0.735%; in test [2], 2.24%; in test [3], -1.95%; in test [4], -0.86%; in test [5] it was -10%.
Regarding `CN1C(=O)C(CC(=O)N2CC(O)C2)(Cc2ccccc2)c2ccccc21` (stereo not drawn), the activity change, negative = inhibition in test [1] is -4.74%; in test [2] it was -0.301%; in test [3] it was -22.4%; in test [4], -5.15%; in test [5], 9.71%.
